# Results published in the supplement of paper PMC11417369.
# ± gives the standard deviation of the averaged measurements. This is one part of the list.
# System: PfAP2-LT AP2 domain (GST-tagged)
# Experiment: gcPBM binding intensity (ln(normalized median fluorescence intensity)); higher = stronger DNA binding
# In short: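 GST-tagged P. falciparum DNA-binding domains produced in E. coli were incubated for 1 h on an Agilent 4 × 180k array of primer-extended double-stranded 36-bp intergenic genomic probes with negative controls. Binding intensity is the highest Masliner-normalised natural-log median intensity across replicate spots of either probe orientation, with bound protein detected by Alexa488 anti-GST antibody at 488 nm.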
row,Sequence,gcPBM binding intensity (ln)
1,GTCCCTATAAGGGGAACACACATAAATGGATATATA [CACACA_site6612],8.88 ± 0.52
2,TCAATAAAAAAAAACGCACACACAAATATATTCCAT [CACACA_site1223],9.63 ± 0.2
3,CATATTCATAAAAGTTGTACATGCAATTTTTTTTTT [XGTACX_site2261],8.55 ± 0.48
4,AAAAATCAATTAGAAGAACACACGTAAATTTTTTTT [CACACA_site2396],8.74 ± 0.54
5,CATTATATGATTTATGTGCACATTCATTTATTTTAA,8.93 ± 0.48
6,TATTAATAAAACCGTTGTACTACATACATAAATATT [XGTACX_site5578],8.6 ± 0.45
7,ATACTATATATATAAGTGCATGTTCATTATACCTAA,8.75 ± 0.35
8,ATATATATTATGTGTGTGCACTTTTGTTATTATTAT,9.37 ± 0.3
9,ATAACTAAATGATATTGTACAAAATAATTATATATT [XGTACX_site1331],8.84 ± 0.43
10,AGGAAAAACTTGAATGCATGCGCACATTCTAGTTTG [TGCATGCA_site776],8.93 ± 0.4
11,TATTATTACGTAATATGTACATATATTTATACCACT [XGTACX_site5918],8.94 ± 0.45
12,AAAAAAAAAAAAAAATGTACAAAAATTACTATAAAA [XGTACX_site7683],8.56 ± 0.61
13,TTTTTTTTTGTTTACACACACAAAATATTATATGTA [CACACA_site2470],9.12 ± 0.3
14,AAAAATATATATAACACACACATAATATATATATAT [CACACA_site2537],9.4 ± 0.38
15,TTATAACACATTACATGTACAAATATAAATATATTC [XGTACX_site6503],8.73 ± 0.39
16,ATATATCATATTATAGTGCATTTATAATAATATTAT,8.62 ± 0.36
17,TATTATCTGTAGTGTACACATATTATATAGTACTTT [CACACA_site4582],8.96 ± 0.4
18,AAAATTATATATTATTGTACATAAAATTTTGACATA [XGTACX_site4886],8.46 ± 0.42
19,ATAACGATATATGTGCGTACTTATAGAATAAGCAAA [XGTACX_site6743],9.02 ± 0.47
20,AAGGATATAACATACACACACACACCGATATATATA [CACACA_site6136],10 ± 0.29
21,TATTTTTTTTTTATATGTACATAATTTCAAATAAAT [XGTACX_site7747],8.41 ± 0.33
22,ACAAATCTAAGATAGTGTACATTTATATATATATAT [XGTACX_site8740],9.23 ± 0.28
23,TTTATTTATCTGTATACACACTTTAATGAAAAGTTG [CACACA_site5400],8.71 ± 0.49

row,Sequence,gcPBM binding intensity (ln)
1,ATTTTTTTTTTTTTTTTTTTTTTTTGGAGAAAGAGA [CACACA_negctrl_site1119],8.11 ± 0.4
2,ATATATATATAATAAACACACACATATACATATATG [CACACA_site9145],9.46 ± 0.16
3,TATATATATATATAAGTGCATATAAAAATCGTTCGT,9.08 ± 0.24
4,TTTATATACACACAGAAGAACAGAAATATTATATAT [TGCATGCA_negctrl_site483],8.99 ± 0.4
5,ATAAATACTAGGCACACACACATATATATATATATA [CACACA_site2080],10.4 ± 0.014
6,ATATATATATATATATGTACATATATGTATACCTTA [XGTACX_site6791],9.59 ± 0.13
7,CAATAGTTCTTATGGGTGCAAACCACATATATATAA [GTGCAC_site9606],8.55 ± 0.53
8,AATCGATTGGATAATATTTTTTCTCTTAATTTTTTG [GTGCAC_negctrl_site165],8.39 ± 0.38
9,AAAAAAATAAAAAGGAACGTCTATAGTTAATTTATT [CACACA_negctrl_site919],8.8 ± 0.59
10,ATGTTGCACAATGTTACACACACAATATATATCGTT [CACACA_site4833],9.62 ± 0.26
11,TATATTAGAAGAAATTCACACATTCATGTAATCTTA [CACACA_site4706],8.53 ± 0.42
12,TATTATTTTTCCTAATGTACAAAATATATATTTTTA [XGTACX_site2727],8.36 ± 0.49
13,TTTGAATATATAAATATGCACACTTCTATTATAAAT [CACACA_site3359],8.69 ± 0.47
14,TTCTTATATAAATACACACACAAAATATCTACAATG [CACACA_site4568],9.22 ± 0.3
15,TACTTACAGATAATAACACACAAGAAAAAAATAAAA [CACACA_site4716],8.96 ± 0.49
16,ATATAAATGTATATGACACACATATATATATATATA [CACACA_site889],9.94 ± 0.099
17,AAAAAACAGACATACACACACACACGGATATTTATA [CACACA_site7570],9.99 ± 0.24
18,TACAAATATGGACACACACACATATTTATATTTATA [CACACA_site6420],9.73 ± 0.4
19,TATATATATATCAAGTGTACTTGTGTTTGTAATATT [XGTACX_site8854],9.03 ± 0.39
20,AATATTTATGGGTGCACACAAACATACAGATATATA [CACACA_site5810],9.21 ± 0.41
21,TTTTTTTTGTTGTTGTTGCACTTGATAGGAATGGCT [GTGCAC_site9701],8.77 ± 0.52
22,AAAAAAAACAGACACACACACAAATACATACACAAA [CACACA_site705],9.72 ± 0.31
23,CCATTTACAAAAAGGAGTACACAAATATATGTTTAA [XGTACX_site649],8.63 ± 0.51

row,Sequence,gcPBM binding intensity (ln)
1,AAAATAAATAAATACACACACACGAATATATATATA [CACACA_site1683],9.99 ± 0.17
2,TTTTAAAAATAATAAATAAATAAAATTGAAGTTCCA [CACACA_negctrl_site305],8.12 ± 0.45
3,TATATTTATTTATATACACACACTTGTATAAAAAAT [CACACA_site2036],8.81 ± 0.39
4,TATATACAGAAACACACACACACATATATATATATA [CACACA_site2247],10.15 ± 0.057
5,TATATCAAAATACATACACACATTTGTATATACATT [CACACA_site2696],9.05 ± 0.44
6,TTAAATATTTTTAGAGTGCATGTAATAAAAATATAA [GTGCAC_site9414],8.43 ± 0.44
7,TATCTATATGGGAACACACTCATAAATATATATCTA [CACACA_site4815],8.76 ± 0.41
8,TATATATATATATTTACACACATTCATATAAATTCA [CACACA_site3532],9.04 ± 0.28
9,AATATGAACGGACACACACACACAAAAAAAAAAAAA [CACACA_site5154],10 ± 0.64
10,GCCTACAGACTTAGTAGTACATGAGAAGATATATAT [XGTACX_site2269],8.79 ± 0.28
11,AAAATTTTTAAATATTGTACTATTTATTTTTAGCAT [XGTACX_site6190],8.51 ± 0.45
12,AAATAATATTTATACACACACACATATTTATATACA [CACACA_site6403],9.66 ± 0.11
13,TTATTTTATTTTGAAGCATGCTTTTTGCTGTGATAA [TGCATGCA_site278],8.46 ± 0.43
14,TTATGCGTTTGCAAAAGTACATATCTATTATTTTTA [XGTACX_site7609],8.53 ± 0.4
15,TATAAAAATATTTAATGTACGAATCTGTGATATATC [XGTACX_site7881],8.54 ± 0.45
16,ATATATTACATATGTGTGCACGTTCCAAAATTTTTA,9.19 ± 0.33
17,CTAAACAGAATTATCACACATATAAATATAAACATA [CACACA_site4560],8.79 ± 0.42
18,TTTTCATGTTGTAAAGCATGCTTTACTCATAAAAAA [TGCATGCA_site917],8.29 ± 0.5
19,ATTATTAAAAGAAGAAGTACTTATATATTAATATTA [XGTACX_site5227],8.4 ± 0.48
20,GGTCTTATTTTTAGTAGTACAAATATAATATACATA [XGTACX_site6483],8.57 ± 0.44
21,TTTTTTTTTTTTTGTTGTACCCATCATATATACATA [XGTACX_site4342],8.66 ± 0.47
22,CAACTAACATATATTCAACACACATATACCTTCAAC [CACACA_site8988],9.18 ± 0.29
23,ATAATATCATAATATTGTACATATTTTATTTTAAAT [XGTACX_site1115],8.55 ± 0.4

row,Sequence,gcPBM binding intensity (ln)
1,TTTTTTGTTTGAATGGTGCATTTTGTAATTATATTT,8.84 ± 0.43
2,TTAAAATAGATATTAGTGCAAAAAAAAAAAAATAAA,8.64 ± 0.57
3,TTTTGATATAAATATTAGATTAATAAATAAAAAAAT [CACACA_negctrl_site1635],8.34 ± 0.49
4,TTCACATACAGAAACACACACATATTTATAAATTAA [CACACA_site7699],9.32 ± 0.33
5,AAAAGAAAATTAAATTAACACACATAAATATATATA [CACACA_site8482],8.84 ± 0.53
6,TTTTTAATTAACTTTTTATAAATAAATAAAAATATA [GTGCAC_negctrl_site334],7.83 ± 0.38
7,ATTATTTAATTTTATTAAAAAAAAACAAATTAACAG [GTGCAC_negctrl_site152],8.19 ± 0.49
8,TAACATATTATATATACATGCATACGTGAACTAATC [TGCATGCA_site888],8.89 ± 0.44
9,GATATATTATTTGAATGTACATATTATATTTATATT [XGTACX_site907],8.78 ± 0.3
10,ATTGTATATGTATATGCACACAATATATGTACTTAT [CACACA_site2611],9.11 ± 0.35
11,TTTTTTTAGTTAATTAAACACACAAAAAAAAAAATA [CACACA_site9301],8.32 ± 0.4
12,GTTAGAATTGTTAGGTGGTCAAAAAGGAGAAAAAAA [XGTACX_site2086],8.56 ± 0.51
13,TTTATGCACGCGTGCACACACATATGAAAAAAGGTA [CACACA_site3315],9.45 ± 0.3
14,TATGTTTAAATATATTGTACGCACGTATGTTTTTAA [XGTACX_site1108],8.76 ± 0.4
15,ACAAATAAATATATATGTACATATATTTTTTTATTT [XGTACX_site2989],8.7 ± 0.38
16,TTTTATTTATATTATACACACAAGGAAAAAAAAAAA [CACACA_site7690],8.66 ± 0.34
17,TATATATTAAAAATAGTGCAAAATAATATATATATA [GTGCAC_site9716],8.99 ± 0.38
18,AATACCTTTTAATAATGTACAAACAAAAATTAGAGA [XGTACX_site6850],8.67 ± 0.51
19,AAGGGGAGAAAAATAAACGAAATATATACATACATA [XGTACX_negctrl_site88],8.88 ± 0.52
20,ATATATATATATATATGTACATATTCATCTTATTCT [XGTACX_site1537],9.83 ± 0.26
21,ATGTCTATATATTAAGGTACACATATATGCTATTCA [XGTACX_site6008],8.96 ± 0.47
